Assay results reported in PubChem BioAssay AID686979 (National Center for Advancing Translational Sciences (NCATS), 2013).
Values joined by “and” are separate entries in the source; they are usually repeats but may differ in a detail not shown here. Identical values can stand only once. Screen size: about 420,000 compounds; about 50,000 (12%) were called active. The inconclusive results got no clear call from the source; some entries with a clear call stand among them for comparison. Calls come from the whole dose curve; as a rule, active = well fitted inhibition curve with a large enough effect; inconclusive = small, poorly fitted or top-dose-only effect; inactive = flat fitted curve, though single readings scatter. Potencies of inconclusive entries are doubtful fits and often do not repeat.

experiment: qHTS for Inhibitors of human tyrosyl-DNA phosphodiesterase 1 (TDP1): qHTS in cells in presence of CPT; conditions: chicken DT40 Tdp1-/-;hTDP1 cells + 20 nM CPT, ATP luminescence, 48 h; activity change, negative = growth inhibition: at 46.2 µM (top of the series) unless noted; note: nearly all actives have a fitted effect of over 55% in size
Summary of the method: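 Cell growth measured by CellTiter-Glo luminescence after a minimum 48 h, 37 C compound exposure with 20 nM CPT in Tdp1-knockout DT40 cells stably expressing hTDP1, seeded 400/well; qHTS titration format.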
% is set by controls: 0 for no effect and ±100 for the full control effect; potency is the fitted concentration of half-maximal effect; tags give direction and shape of the fitted curve.

| SMILES | Potency | activity change, negative = growth inhibition |
| --- | --- | --- |
| CCc1cccc(C)c1NC(=O)CN(C)Cc1cccc(F)c1 | inconclusive: 16.4 µM [inhibitor, partial curve] | – |
| CCc1nnc(NC(=O)CSc2nnc(-c3ccncc3)n2C)s1 | – | inactive: -6.71% |
| Cn1cnnc1SCC(=O)NC1CCCN(Cc2ccc(Cl)cc2)C1 (centres undefined) | – | inactive: 12.7% |
| Cc1ccc(C)c2c1cc(C)c1nnc(SCC(=O)Nc3nc4c(s3)CCCC4)n12 | inconclusive: 20.6 µM [inhibitor, single point] | – |
| Cc1cccc2cc(CN(Cc3ccco3)C(c3nnnn3CCc3ccccc3)C(C)C)c(=O)[nH]c12 (centres undefined) | inconclusive: 18.4 µM [inhibitor, single point] | – |
| COc1cccc(Oc2ccc(N/C=C/C(=O)C(C)(C)C)cc2)c1 | – | inactive: 0.224% |
| O=C1[C@H]2[C@@H](c3ccc(Cl)cc3)N3C(=O)N(c4cccc(F)c4)C(=O)[C@@]3(Cc3ccc(Cl)cc3)[C@H]2C(=O)N1C1CCCCC1 | inconclusive: 29.1 µM [inhibitor, single point] | – |
| Cc1ccc(NC(=O)c2ccc(Br)o2)cc1S(=O)(=O)N(C)C | inconclusive: 25.9 µM [inhibitor, single point] | – |
| O=C(Nc1nc(=O)n(C(=O)c2cccc(C(F)(F)F)c2)s1)c1ccccc1 | inconclusive: 29.1 µM [inhibitor, single point] | – |
| COC(=O)N/N=C\c1ccc(OC(=O)c2ccco2)cc1 | – | inactive: -12.9% |
| CCCCn1c(N)c(N(CCOC)C(=O)CSCc2ccc(Cl)c(Cl)c2)c(=O)[nH]c1=O | – | inactive: -25.6% |
| CCC(C)C(=O)N1c2ccccc2C(=C2SC(C(=O)OC)=C(C(=O)OC)S2)C(=S)C1(C)C (centres undefined) | active: 11.2 µM | – |
| C/C(N)=C(/C#N)C(=O)CSc1nc2cc(Cl)ccc2s1 | – | inconclusive: -31.2% [inhibitor] |
| Cc1cc(C(=O)CN2CC(C)OC(C)C2)c(C)n1-c1ccccc1 (centres undefined) | inconclusive: 16.4 µM [inhibitor, single point] | – |
| COc1cc(NC(=O)Nc2cccc([N+](=O)[O-])c2)cc(OC)c1 | inconclusive: 29.1 µM [inhibitor, single point] | – |
| Cc1ccc(S(=O)(=O)NCCc2nnc3ccc(SCc4ccccc4F)nn23)cc1 | active: 18.4 µM | – |
| CN(c1ccc(C(=O)Nc2cccnc2)cc1)S(=O)(=O)c1ccccc1 | – | inactive: -1.11% |
| CCCc1cc(=O)n2[nH]c(NCc3ccc(OC)cc3)nc2n1 | – | inactive: 17.5% |
| Cc1ccc2c(CN3CCN(c4ccc(Cl)c(Cl)c4)CC3)cc(=O)oc2c1 | inconclusive: 29.1 µM [inhibitor, single point] | – |
| Cc1cc(C)n(CCSCC(=O)O)n1 | – | inactive: 2.55% |
| CC1CCN(c2cc(N(C)CCO)c([N+](=O)[O-])c3nonc23)CC1 | inconclusive: 23.1 µM [inhibitor, single point] | – |
| O=C(CCSC1=NCCCN1)c1ccc(F)cc1 | active: 1.84 µM | – |

| SMILES | Potency | activity change, negative = growth inhibition |
| --- | --- | --- |
| CN1CCN(NC(=O)/C=C/c2cccc([N+](=O)[O-])c2)CC1 | – | inactive: 15.8% |
| COc1cccc(NC2CC(=O)N(CCc3ccccc3)C2=O)c1 (centres undefined) | inconclusive: 23.1 µM [inhibitor, partial curve, poor fit] | – |
| CCCN1CCOC(CC(=O)Nc2ccc([N+](=O)[O-])cc2)C1=O (centres undefined) | inconclusive: 23.1 µM [inhibitor, single point] | – |
| CCOc1ccc(NC(=O)CN(C)C(=O)c2cc3c(s2)CCCCC3)cc1OCC | – | inactive: 1.56% |
| Cc1cc(C)n2[nH]c(=O)c(N=Nc3cccc(C(F)(F)F)c3)c2n1 | inconclusive: 13 µM [inhibitor, partial curve] | – |
| Cc1ccc(NC(=O)c2oc3ccc(S(=O)(=O)N4CCCCC4)cc3c2C)c(C)c1 | – | inactive: -10.6% |
| COc1ccc(C(NC(C)=O)c2ccc3cccnc3c2O)c(OC)c1 (centres undefined) | active: 3.66 µM | – |
| CC1(C(=O)Nc2ccc3c(c2)OCO3)CCN1C(=O)Cc1cc(F)ccc1F (centres undefined) | – | inactive: -26.2% |
| NC(=O)C1CCN(C(=O)CCC(=O)c2ccc(F)cc2)CC1 | – | inactive: -4.17% |
| CCC(=O)c1cc2c(C)cc(=O)oc2c(C)c1OC(=O)C(C)C | inconclusive: 29.1 µM [inhibitor, single point] | – |
| CN1CCN(c2nc3c(c(=O)[nH]c(=O)n3C)n2CCCSc2nnnn2-c2ccccc2)CC1 | inconclusive: 0.517 µM [inhibitor, full curve, poor fit] | – |
| Cc1cc(C)c(NC(=O)CN2C(=O)C3(SCC(=O)N3c3ccc(F)cc3)c3ccccc32)c(C)c1 (centres undefined) | inconclusive: 29.1 µM [inhibitor, single point] | – |
| CC(C)Cn1c(SCC(=O)O)nnc1-c1cccc(S(=O)(=O)N2CCOCC2)c1 | – | inactive: -14.3% |
| Cc1cc(C)c(NC(=O)c2c(C)oc3c2C2=NCCN2C=N3)c(C)c1 | active: 16.4 µM | – |
| CCn1cc(C2=NC(CC(C)C)CO2)c2ccccc21 (centres undefined) | inconclusive: 29.1 µM [inhibitor, single point] | – |
| Cc1cccc(N2CCN(C(=O)C(C)n3nc(C)n4c(cc5occc54)c3=O)CC2)c1C (centres undefined) | inconclusive: 20.6 µM [inhibitor, single point] and inconclusive: 18.4 µM [inhibitor, single point] | – |
| O=[N+]([O-])c1ccc(N2CCN(S(=O)(=O)c3ccc(Cl)cc3)CC2)cc1NCC1CCCO1 (centres undefined) | – | inactive: -7.67% |
| COc1cc(/C=C2\SC(=S)N(NC(=O)c3ccccc3OC)C2=O)ccc1O | inconclusive: 20.6 µM [inhibitor, partial curve, poor fit] | – |
| CCOc1ccccc1N1CC(C(=O)Nc2cc(S(=O)(=O)N3CCOCC3)ccc2OC(C)C)CC1=O (centres undefined) | inconclusive: 8.2 µM [inhibitor, partial curve, poor fit] | – |
| CC(C)(C)S(=O)N1Cc2cc(CO)cc(-c3ccccc3)c2[C@H]1CCO (some centres undefined) | inconclusive: 25.9 µM [inhibitor, single point] | – |
| COc1ccc2[nH]cc(CCNC(=S)NCCc3ccccc3)c2c1 | inconclusive: 20.6 µM [inhibitor, single point] | – |
| Cc1ccc(COC(=O)c2cc(S(=O)(=O)N3CCOCC3)ccc2C)cc1 | inconclusive: 14.6 µM [inhibitor, single point] | – |
